In PubChem BioAssay AID1963576 (National Center for Advancing Translational Sciences (NCATS), 2024):
About 60 (0.1%) of roughly 46,000 compounds were called active. Roughly 3% stayed inconclusive and do not appear here. Calls follow the shape of the dose curve; as a rule, active = well fitted inhibition curve with a large enough effect; inconclusive = small, poorly fitted or top-dose-only effect; inactive = no such curve, though single readings can be large or run the other way. The list shows a part of the results.

Test: Primary qHTS assay for Inhibitors of ovarian cancer metastasis using an organotypic tumor microenvironment (TME) model. Also: nearly all actives have a fitted effect of over 65% in size.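 As to activity change, negative = inhibition: plate controls were DMSO wells for no effect and tomatine positive control wells for full effect.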
Settings: SKOV3ip1-GFP adhesion/invasion on 3D omental model, fluorescence; series mostly up to 45.8 µM; activity change, negative = inhibition: at the top concentration
Outline: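 Primary human omental fibroblast/mesothelial 3D culture pre-formed 48 h. SKOV3ip1-GFP cells added with compounds (0.36-46 umol/L), incubated 2 h RT/16 h 37 C, fixed; GFP cells quantified at 488/509 nm.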

Activity change, negative = inhibition, inactive:
COc1ccc(OC)c(CCNC(=O)c2cc3c(=O)n(C)c4ccccc4c3n2C)c1 9.22%
O=C(c1cc(F)cc(F)c1)N1CCC(c2nc(-c3ccc(S(=O)(=O)N4CCCC4)cc3)no2)CC1 -5.35%
CCOc1ccc(NC(=O)CN2CCN(c3ccc(Cl)cc3)CC2)cc1 -12%
COc1ccc(CN(C(=O)Cc2coc3ccc(C)cc23)C2CCS(=O)(=O)C2)cc1 (centres undefined) -1.01%
O=C(Cn1c(=O)nc(-c2ccccc2)c2cc(Cl)ccc21)NCCc1ccccc1 10.9%
COc1cc(Cl)c(C)cc1NC(=O)c1cc2c(s1)-c1c(C)cccc1OC2 -18.5%
COc1cccc(CNC(=O)CCS(=O)(=O)c2ccc3c(c2)CC(C)N3C(=O)C2CC2)c1 (centres undefined) -3.4%
Cc1cc2[nH]c(=O)c(=O)[nH]c2cc1S(=O)(=O)Nc1cccc(C(F)(F)F)c1 -11.1%
Cc1sc2ncn(CC(=O)N3CCN(c4ccc(F)cc4)CC3)c(=O)c2c1S(=O)(=O)N1CCN(c2ncccn2)CC1 -0.353%
CCC(=O)N1CCc2cc(S(=O)(=O)NC(CC(C)C)C(=O)NCc3ccc(C)cc3)ccc21 (centres undefined) -27.4%
CCc1nn(CC(=O)N2CCN(c3cccc(C)c3C)CC2)c(=O)c2cc3sccc3n12 -1.52%
Cc1ccc(OCC(=O)N(Cc2sccc2C)C2CCS(=O)(=O)C2)cc1 (centres undefined) -2.98%
CCCCN(C)C(=O)Cn1cnc2sc(C)c(S(=O)(=O)N3CCN(c4ccccc4OC)CC3)c2c1=O 6.98%
CNC(=O)c1ccc(NC(=O)COc2ccc(-c3nn(C)c(=O)c4ccccc34)cc2)cc1 8.88%
Cc1ccccc1NC(=O)Nc1cccs1 -7.47%
O=C1c2oc3ccccc3c(=O)c2C(c2cccc(Br)c2)N1c1ccccn1 (centres undefined) 14.7%
COc1ccc(-c2noc(CSc3nnc(-c4ccncc4)n3-c3ccc(C)c(C)c3)n2)cc1 7.04%
CCOc1ccc(NC(=O)Cn2c(CCC(=O)O)ccc2-c2ccc(C)cc2)cc1 3.55%
Cc1ccc2onc(CC(=O)N3CCN(c4cccc(C)c4C)CC3)c2c1 -0.797%
Cc1ccc(C)c(CN2C(=O)c3ccccc3Sc3ccc(C(=O)NCc4ccc5c(c4)OCO5)cc32)c1 -34.4%
COc1ccc(Cn2c(CO)cnc2SCC(=O)NCc2ccco2)cc1 -18.3%
Cc1ccccc1C(=O)Nc1cccc(C(=O)OCc2cc(=O)n3nc(C4CC4)sc3n2)c1 23.2%
COc1ccc(-c2nc(Cn3c(SCc4ccc(F)cc4)nc4cccnc43)c(C)o2)cc1 -8.54%
Cc1ccc([N+](=O)[O-])cc1S(=O)(=O)N1CCn2cccc2C1c1ccc(F)c(F)c1 (centres undefined) -20.2%
COc1ccc(NC(=O)c2c(NC(=O)c3cccc(C)c3)sc3c2CCCC3)cc1 1.7%
COc1ccc(N2CCN(C(=O)c3nn(-c4ccc(C)cc4)c(=O)n(C)c3=O)CC2)cc1 -1.8%
Cc1ccc(C)c(Nc2nnc(-c3ccc(C)c(S(=O)(=O)N4CCCCC4)c3)c3ccccc23)c1 -1.28%
Cc1ccc(CSc2nc3c(c(=O)[nH]2)C(c2cccc(F)c2F)CC(=O)N3)cc1 (centres undefined) 7.36%
CCOC(=O)c1cc(-c2ccc(OC)cc2)nn1Cc1ccccc1 -1.54%
COc1ccc(NC(=O)c2sc3nc[nH]c(=O)c3c2C)cc1OC 65.4%
Cc1ccc(OCC(=O)Nc2ccc3nc(SCC(=O)N(C)c4ccccc4)sc3c2)cc1 -2.34%
COc1cc2ncc3c(-c4ccccc4)nn(-c4ccc(C)cc4)c3c2cc1OC 1.97%
CCc1ccccc1Nc1nn2c(=O)c3ccc(C(=O)NCc4ccccc4Cl)cc3nc2s1 -3.46%
N#C/C(=C\c1ccc(-c2ccc(C(=O)O)cc2)o1)c1nc2ccccc2[nH]1 2.63%
CN1CCc2c(sc3c2C(=O)NC(c2ccc(OC(=O)c4ccc(Cl)cc4)cc2)N3)C1 (centres undefined) -20.7%
COc1ccc(CC(=O)NCCc2sc(-c3cccc(F)c3)nc2C)cc1 -1.32%
CCCCOc1ccc(C(=O)N(Cc2nc(-c3ccc(Cl)cc3)no2)C(C)C)cc1 -14.5%
CCCCNC(=O)c1sc2ncccc2c1-n1cccc1 -6.06%
O=C(Nc1ccc(S(=O)(=O)N(Cc2ccccc2)c2ccccc2)cc1)c1ccc(F)cc1 -0.637%
Cc1cccc(NS(=O)(=O)c2ccc3c(c2)CCCN3C(=O)C2CCC2)c1C 1.58%
COc1cc(CNc2ccc3[nH]c(=O)[nH]c3c2)cc(Cl)c1OCc1ccc(F)cc1 -13%
Cc1nn(C(C)(C)C)c(OC(=O)c2c(F)cccc2F)c1Sc1ccccc1 -0.627%
O=C(NCCCc1nc2ccccc2n1Cc1ccccc1F)c1ccco1 0.939%
COC(=O)C(CCSC)NC(=O)c1cc2c(n(-c3ccccc3)c1=O)CC(C)(C)CC2=O (centres undefined) 23.8%
CN1C(=O)c2ccccc2Sc2ccc(NC(=O)c3ccc(C#N)cc3)cc21 4.36%
COc1ccc(-c2cc(C(=O)Nc3c(C)n(C)n(-c4ccccc4)c3=O)no2)cc1 6.78%
Cc1cc2oc(C(=O)Nc3c(C)n(C)n(-c4ccccc4)c3=O)cc(=O)c2cc1C -1.87%
O=C(Cn1cc(S(=O)(=O)Cc2ccccc2F)c2ccccc21)NCc1ccccc1 -5.32%
Cc1csc2nc(-c3cccc(NC(=O)c4c(F)cccc4F)c3)cn12 8.96%
O=C(Nc1ccc(C(=O)OCc2cc(=O)n3c4c(sc3n2)CCCC4)cc1)c1cccc(F)c1 -0.409%
Cc1ccc2c(=O)cc(C(=O)Nc3nc4ccc(Cl)cc4s3)oc2c1 -6.14%
COc1ccc(C(=O)OCc2cc(=O)n3nc(C4CC4)sc3n2)cc1OC -1.32%
Cc1c(CC(=O)NCc2ccccc2Cl)c(=O)oc2cc(O)ccc12 0.581%
COc1cc(OC)cc(N2C(=O)CSC23C(=O)Nc2ccccc23)c1 (centres undefined) 8.3%
O=C(NCCc1ccccc1)c1cc(-c2ccc(Cl)c(Cl)c2)on1 -5.62%
Cc1ccc2oc(C(=O)Nc3ccc(S(=O)(=O)Nc4nc(C)cc(C)n4)cc3)cc(=O)c2c1 -11.5%
Cc1ccc(NC(=O)CCn2cnc3onc(-c4ccc(F)cc4)c3c2=O)c(Br)c1 7.8%
CC(C)Oc1ccc(CNS(=O)(=O)c2ccc(-c3cc(C(F)(F)F)on3)s2)cc1 3.29%
CCOc1ccc(-c2nnc(SCC(=O)Nc3cccc(Cl)c3C)o2)cc1 -7.82%
O=C(CSc1nc2sc3c(c2c(=O)[nH]1)CCCC3)Nc1ccccc1F 4.73%
O=c1cc(O)c(Cl)c[nH]1 -2.8%
COc1cccc(NC(=O)C2CCN(c3nnc(-n4c(C)ccc4C)s3)CC2)c1 -0.0666%
Cc1ccc(CNC(=O)C2CCCN(Cc3nc(-c4cccc(C)c4)oc3C)C2)cc1 (centres undefined) -21%
Cc1ccc(Cl)cc1N1CCN(C(=O)COCc2cc(-c3ccc4c(c3)OCO4)on2)CC1 -8.43%
Cc1c(-c2nc(-c3ccc4c(c3)OCO4)no2)nnn1-c1cccc(C(F)(F)F)c1 5.32%
Cc1cc2c(cc1S(=O)(=O)Nc1cccc(Cl)c1C)OCCN2C -14.8%

outcome, inactive:
Cc1cc(=O)n2nc(N(C)CC(=O)NCc3ccc(Cl)cc3)sc2n1
CCc1cccc(NC(=O)CCN2C(=O)c3ccccc3Sc3ncccc32)c1
CCOC(=O)c1cccc(NC(=O)C2CCCN(S(=O)(=O)c3cc(Br)cc4c3N(C(=O)CC)CC4)C2)c1 (centres undefined)
Clc1ccc(Nc2nc(-c3ccccc3)c3cc(Cl)ccc3n2)cc1
Cc1cc(=O)n2nc(N3CCC(C(=O)NCc4ccc(Cl)cc4)CC3)sc2n1
CCOC(=O)c1[nH]c2ccccc2c1NC(=O)c1cc(OCC)c(OCC)c(OCC)c1
COc1cc(NC(=O)CC(C)S(=O)(=O)c2cc3c4c(c2)CCN4C(=O)CC3)cc(OC)c1 (centres undefined)
CC(=O)c1cccc(NC(=O)c2ccc3nc(C(C)C)oc3c2)c1
COc1cc2nc(SCC(=O)Nc3cccc(C)c3)n3nc(-c4ccccc4)nc3c2cc1OC
Cn1nnnc1SCCNCc1ccccc1Cl
COc1cccc(CNC(=O)CN(C)S(=O)(=O)c2ccc3c(c2)c(=O)n(C)c(=O)n3C)c1
CC(C)c1ccc(NC(=O)C(Cc2ccccc2)NS(=O)(=O)c2ccc3c(c2)CCC(=O)N3)cc1 (centres undefined)
COc1ccc(Cl)cc1NC(=O)Cn1cc(S(=O)(=O)Cc2cccc(Cl)c2)c2ccccc21
CC(=O)N1CCc2cc(Br)cc(S(=O)(=O)CCC(=O)NCCc3ccc(Cl)cc3)c21
Cn1c(=O)oc2cc(S(=O)(=O)N3CCC(C(=O)N4CCN(c5cccc(Cl)c5)CC4)CC3)ccc21
CCOc1ccc(CCNC(=O)c2ccc(CS(=O)Cc3ccc(Cl)cc3)o2)cc1 (centres undefined)
O=C(CCc1ccccc1)N1CCc2c([nH]c3ccccc23)C1c1ccc(F)cc1 (centres undefined)
O=C(CCCn1c(=O)c2ccccc2n(Cc2cccc(F)c2)c1=O)NCc1ccccc1Cl
COc1ccc(NC(=O)CN(c2ccc(C)cc2)S(=O)(=O)c2cccs2)cc1
CCOC(=O)Cn1c(=O)n(-c2ccc(Cl)cc2)c2nc(-c3ccc(Cl)cc3)nc(C(N)=O)c21
COc1ccc(CCNc2nc3c(c(=O)n(C)c(=O)n3C)n2Cc2ccccc2Cl)cc1OC
Cc1cccc(C(=O)Nc2ccccc2OCc2cc(=O)n3c(C)csc3n2)c1
CCOc1ccc(Nc2c3c(nc4nncn24)CCC3)cc1
Cc1ccc2nc(CN3CCN(S(=O)(=O)c4ccc(F)cc4)CC3)oc2c1
CCCNC(=O)CSc1cn(CC(=O)N2CCCCCC2)c2ccccc12
COc1ccc(CCNC(=O)CCn2c(=O)c3ccccc3n(Cc3ccccc3C)c2=O)cc1OC
COc1ccc(-c2nc3ccccc3o2)cc1NC(=O)c1ccc(-c2cccc(Cl)c2C)o1
CC1=C(C(=O)Nc2cccc(C(F)(F)F)c2)C2(CCN(C(C)C)CC2)OC1=O
